In all, about 420,000 compounds went through this assay and about 64,000 (15%) were called active. Inconclusive results, whose numbers are uncertain, are shown with a selection of clear calls. The call rests on the fitted dose curve; in most records, active means well fitted inhibition curve with a large enough effect; inconclusive means small, poorly fitted or top-dose-only effect; inactive means flat fitted curve, though single readings scatter. Potencies of inconclusive entries are left out as doubtful fits.
Assay: qHTS for Inhibitors of human tyrosyl-DNA phosphodiesterase 1 (TDP1): qHTS in cells in absence of CPT; further: nearly all actives have a fitted effect of over 55% in size
Settings: DT40 Tdp1-/- hTDP1 cells, no CPT, ATP luminescence, 48 h; activity change, negative = growth inhibition: at 46.2 µM (top of the series) unless noted
Outline: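 Stably hTDP1-transfected Tdp1-null chicken DT40 cells were treated with library compounds minus camptothecin and grown for at least 48 hr at 37 °C, after which cellular ATP was quantified by luminescence.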
On the % scale 0 is the no-effect control and ±100 the full control effect; potency means the concentration at half of the fitted maximal effect; tags describe the fitted curve by direction and shape.

Row | Structure (SMILES) | Potency | activity change, negative = growth inhibition
1 | O=C(c1ccccc1NS(=O)(=O)c1ccc(Br)cc1)N1CCOCC1 | inactive | 
2 | CCOc1ccc(CCNC(=O)c2oc3c(c2C)-c2[nH]ncc2CC3)cc1OCC | inconclusive [inhibitor, single point] | 
3 | COc1ccc(-c2nc3ccc(Br)cn3c2Cc2ccccc2)cc1OC | inconclusive [inhibitor, single point] | 
4 | C=C1Cc2c(Cl)cc3[nH]c4c5c3c2[C@@]2(O)[C@@H]1C[C@@H]2C(C)(C)O[C@H]5[C@@H]1CC[C@@]2(O)[C@@]35O[C@@H]3[C@@H](O)[C@@H](C(=O)O)O[C@H]5CC[C@]2(C)[C@@]41C | active: 4.11 µM | 
5 | CCOc1ccc(C)cc1S(=O)(=O)N1CCCCC1 | inconclusive [inhibitor, partial curve, poor fit] | 
6 | CC(O)CN1C(=O)C(CC(=O)Nc2ccc(Cl)cc2)SC1=Nc1ccccc1 (stereo unspecified) | active: 25.9 µM | 
7 | Cc1ccc2nc(CSc3nc(C)ccc3C#N)[nH]c2c1 | active: 31.6 µM | 
8 | COc1ccc(Nc2cc(C)c3ccccc3n2)cc1 | inconclusive [inhibitor, single point] | 
9 | Cc1cccc(C)c1NC(=O)CCCN1C(=O)C(c2ccccc2)Oc2cccnc21 (stereo unspecified) | inactive | 
10 | O=C(CCc1ccccc1)N=C1SC2CS(=O)(=O)CC2N1c1ccc(F)cc1 (stereo unspecified) | inactive | 
11 | CC(=O)c1c(O)c(C)c(O)c2c1OC1=Cc3c(c(C)nn3C)C(=O)C12C (stereo unspecified) | active: 29.1 µM | 
12 | O=C(CN1c2cccc3cccc(c23)S1(=O)=O)NCc1ccc2c(c1)OCO2 |  | inconclusive: -30.9% [inhibitor]
13 | CS(=O)(=O)Nc1ccc(S(=O)(=O)N2CCOCC2)cc1 | inconclusive [inhibitor, single point] | 
14 | O=C(O)CCCN1C(=O)NC2NC(=O)NC21 (stereo unspecified) | inactive | 
15 | CCC(=O)c1ccc(-c2ccccc2)cc1 | inactive | 
16 | Clc1cccc(OCCn2cncn2)c1Cl | inactive | 
17 | O=C(COc1ccc([N+](=O)[O-])cc1)Nc1ccc(N2CCCC2)cc1 | inconclusive [inhibitor, full curve, poor fit] | 
18 | CC(CNC(=O)c1ccc(CSc2nc3ccncc3n2Cc2ccccc2)cc1)c1ccccc1 (stereo unspecified) | inconclusive [inhibitor, single point] | 
19 | c1ccc(-n2ncc3c(N4CCCC4)ncnc32)cc1 |  | inconclusive: -36.4% [inhibitor]
20 | CCCc1nnc(NC(=O)c2nc(S(=O)(=O)Cc3cccc(C)c3)ncc2Cl)s1 | inconclusive [inhibitor, single point] | 
21 | O=c1cnc2cnc(Nc3ccccc3)nc2n1CCc1ccccc1 | inconclusive [inhibitor, partial curve] | 
22 | CCOC(=O)c1ccc(NC(=O)NCCOCCn2c(=O)oc3ccccc32)cc1 | inconclusive [inhibitor, single point] | 
23 | Nc1cc2c(cc1[N+](=O)[O-])OCO2 | inactive | 

Row | Structure (SMILES) | Potency | activity change, negative = growth inhibition
24 | CCCCC[C@@H](C)N1C[C@@H](COCc2ccccc2)Oc2cc(N3CCC[C@@H]3COC)ccc2S1(=O)=O | active: 16.4 µM | 
25 | CCOc1ccccc1-c1noc(CCC(=O)Nc2cccnc2)n1 | inconclusive [inhibitor, single point] | 
26 | CSCCC(NC(=O)c1ccc([N+](=O)[O-])cc1Cl)C(=O)OCC(=O)NCCCc1ccccc1 (stereo unspecified) | inconclusive [inhibitor, partial curve, poor fit] | 
27 | CCN(CC(=O)Nc1ccc(OC)cc1)C(=O)c1ccc2c(c1)NC(=O)CS2 | inactive | 
28 | Cc1cc(=O)[nH]c(N2CCCNCC2)n1 | inactive | 
29 | CCOc1ccc(NC(=O)COc2ccc(C(=O)NC(C)c3ccc(S(N)(=O)=O)cc3)cc2OC)cc1 (stereo unspecified) | inconclusive [inhibitor, single point] | 
30 | CC(=O)Nc1ccc(/C(C)=N/Nc2nc(Nc3ccccc3)nc(N3CCOCC3)n2)cc1 | active: 7.31 µM | 
31 | CCCC12CN3CC(CCC)(CN(C1)C3c1ccccc1)C2=O (stereo unspecified) | inconclusive [inhibitor, single point] | 
32 | Oc1ccc(N=Cc2sc3ccccc3c2Cl)cc1 | active: 10.3 µM | 
33 | COc1cc(C(=O)OCCNC(=O)c2ccccc2)cc(OC)c1OC | inconclusive [inhibitor, partial curve] | 
34 | COc1ccc(C2(CNC(=O)c3cccc([N+](=O)[O-])c3)CCCCC2)cc1OC | active: 10.3 µM | 
35 | Cc1cc(C)nc(SCC(=O)N/N=C/c2cccn2-c2cccc(C(F)(F)F)c2)n1 | inconclusive [inhibitor, single point] | 
36 | CC(C)(CO)NCc1ccc(Br)cc1 | inconclusive [inhibitor, single point] | 
37 | CCS(=O)(=O)c1nc(S(=O)(=O)c2ccc(C)cc2)c(NCCCOC)s1 | inconclusive [inhibitor, single point] | 
38 | CC1C(=O)N(Cc2cn(Cc3ccco3)nn2)CCS(=O)(=O)N1Cc1ccc(-c2cccc(N(C)C)c2)cc1 (stereo unspecified) | active: 16.4 µM | 
39 | O=C1C=CN(C2OC(CO)C(O)C2O)C(=O)C1 (stereo unspecified) | active: 3.66 µM | 
40 | COc1ccc(Oc2ccc(/C=C/C(=O)c3cccc(OC)c3)cc2[N+](=O)[O-])cc1 | active: 7.31 µM | 
41 | CC1(C(=O)NS(=O)(=O)c2ccccc2Cl)CCN1C(=O)CC(c1ccccc1)c1ccccc1 (stereo unspecified) | active: 7.31 µM | 
42 | CC(=O)Nc1cccc(NC(=O)COC(=O)CO/N=C(\C)c2ccc3c(c2)OCO3)c1 | inactive | 
43 | CN1CCN(S(=O)(=O)c2ccc(NC(=O)c3ccc(Br)s3)cc2)CC1 | inconclusive [inhibitor, single point] | 
44 | CCn1c(CNC(=O)c2ccc(OC)cc2)nnc1SCC(=O)Nc1ccc(C)cc1 | inactive | 
45 | CCC(=O)N/C(=N/c1nc(C)cc(C)n1)Nc1cccc(OC)c1 | inconclusive [inhibitor, single point] | 
46 | CC(=O)c1ccc(NC(=O)c2ccc(-c3ccc(Cl)cc3)o2)cc1 | inconclusive [inhibitor, single point] | 

Source: PubChem BioAssay AID686978 (National Center for Advancing Translational Sciences (NCATS), 2013)
